Data as given in PubChem BioAssay (NCI).
Several values for one entry are separate records, joined by “and”; a condition that tells them apart may be missing. Equal entries are not always repeated.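 Results reflect a 48-hour exposure of cells in 96-well plates to compound at five concentrations. GI50: concentration for 50% inhibition of growth. TGI is the concentration that stops growth completely.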

Tested on: NCI-H322M lung
Experiment: NCI anticancer screen, dose series, 48 h

Row | SMILES | TGI | GI50
1 | CCOC(=O)c1sc(Nc2cc(Cl)ccc2Cl)nc1C | > 100 µM | –
2 | OCC(O)COc1ccc(F)cc1 (configuration not stated) | > 100 µM | –
3 | Nc1nc(N)c2cc(Sc3ccc(Cl)cc3)ccc2n1 | 12.8 µM | 1.53 µM
4 | N[C@@H]1c2c(Br)sc(Br)c2C(=O)[C@H]1Br | > 100 µM | –
5 | COc1cc(/C=C(\C)c2ccc3c(c2)OCO3)cc(OC)c1OC | > 100 µM | –
6 | N#CC(NNC(=O)Cc1ccccc1)c1ccc(O)cc1 (configuration not stated) | > 100 µM | –
7 | OC1CCC(COC(c2ccccc2)(c2ccccc2)c2ccccc2)O1 (configuration not stated) | 31.5 µM | –
8 | S=C1NC(c2ccccc2)=NC(Cc2ccccc2)(c2ccccc2)N1c1ccccc1 (configuration not stated) | > 100 µM | –
9 | Cn1cnc([N+](=O)[O-])c1Sc1nccn1-c1ccccc1 | > 100 µM | –
10 | Cc1cccc2c1NC(=O)[C@@H](NC(=O)[C@H](CCC(F)(F)F)[C@H](CCC(F)(F)F)C(N)=O)N=C2c1cccc(F)c1 | > 100 µM | > 100 µM
11 | CCN1C2=C(SC(=S)C1=C1SC(C(=O)c3ccccc3)=C(C(=O)c3ccccc3)S1)SC(=Nc1ccccc1)C2=O | > 100 µM | > 79.3 µM
12 | COc1ccc(-c2nnc3c4ccccc4sn23)cc1 | > 100 µM | –
13 | Cc1ccccc1C(C#N)/C(=N/NC(N)=S)C(=O)Nc1c(C)cccc1C (configuration not stated) | > 100 µM | –
14 | CC(=O)N[C@@H](Cc1ccc(OP(=O)(O)O)cc1)C(=O)N[C@H]1CCC(=O)N2CCC[C@@H](C(=O)NCc3cccc4ccccc34)N2C1=O | > 25 µM | > 25 µM
15 | COCN1C(=O)[C@@H]2CCCN2C(=O)c2ccc(Cl)cc21 | > 100 µM | –
16 | Cc1cc(S(=O)(=O)Nc2n[nH]c(-c3ccc(Cl)cc3)c2C#N)c(S)cc1Cl | > 100 µM | > 100 µM
17 | NCCSC1(O)C(=O)c2ccccc2-c2ccccc21 (configuration not stated) | 3.16 µM | –
18 | Cn1c(=O)oc2cc(C(=O)CN3CCN(Cc4ccc5c(c4)OCO5)CC3)c(Cl)cc21 | > 100 µM | –
19 | COc1ccc(-c2nc(SCC(=O)N/N=C/c3ccc([N+](=O)[O-])cc3)[nH]c2-c2ccc(OC)cc2)cc1 | > 76.6 µM | –
20 | CCOC(=O)C(=NN(C)c1ncccc1N)C(=O)OCC | > 100 µM | –
21 | CNC(=O)N(CCCC(NC(C)=O)C(=O)NCc1ccccc1)Cc1ccccc1 (configuration not stated) | > 100 µM | –
22 | Cc1ccc(OC2CC(n3cnc4c(=O)[nH]c(Br)nc43)OC2Oc2ccc(C)cc2)cc1 (configuration not stated) | 47.7 µM | –
23 | CSc1nc(SC)c2c(C)cn(Cc3ccccc3)c2n1 | > 100 µM | –
24 | Nc1ccc(-c2nnc(-c3c(Cl)c(Cl)c(Cl)c(Cl)c3-c3nc4ccc(C(=O)c5ccccc5)cc4[nH]3)o2)cc1 | > 100 µM | –
25 | CCOC(=O)c1cc2c(OC)cc(OC)cc2oc1=O | > 100 µM | –

Row | SMILES | TGI | GI50
26 | Cc1cnc2cc(Cl)ccc2c1NCCN(CC(C)C)CC(C)C | > 100 µM | –
27 | O=C(NC/C=C/CO)c1ccccc1 | > 100 µM | –
28 | CC12CCC3C(CCC4(O)C=CCCC34C=O)C1(O)CC(O)C2c1ccc(=O)oc1 (configuration not stated) | 0.109 µM | –
29 | CCOC(=O)c1ccc(N(C)Cc2cnc3nc(N)nc(N)c3n2)cc1 | > 100 µM | –
30 | CC(Cc1ccc(O)cn1)(NC(=O)c1ccccc1)C(=O)O (configuration not stated) | > 100 µM | –
31 | COc1cc(Br)cc2c1O[C@H]1C(=O)CC3CC21CCN3C (some centres not stated) | > 100 µM | –
32 | CCOC(=O)c1csc(NC(=O)CCN2CCOCC2)n1 | > 100 µM | –
33 | Cc1ccc(NCCO)cc1 | > 100 µM | –
34 | NC(=S)N/N=C/c1cn(CCCl)c2ccccc12 | > 100 µM | –
35 | COc1cc2cc(Oc3ccc(NC(=O)Nc4ccc(F)c(C(F)(F)F)c4)cc3)c(C)nc2cc1OCCN1CCOCC1 | 13.6 µM | 3.38 µM
36 | O=C(NC(=S)Nc1ccc(-c2nc3ccccc3[nH]2)cc1)c1ccc2ccccc2c1 | > 100 µM | 4.11 µM
37 | C=CC(C)(C)c1c(OC)oc2ccc(OC)c(C)c2c1=O | > 100 µM | –
38 | CN(CC(=O)O)S(=O)(=O)c1ccc(Cl)cc1 | > 100 µM | –
39 | O=C1C2=C(c3ccccc31)C(c1ccccc1Cl)NC(=S)N2 (configuration not stated) | > 100 µM | –
40 | CCCc1c(O)c2ccccc2[nH]c1=O | > 100 µM | –
41 | O=C(O)COc1ccc2c3c1C(=O)CCC3CO2 (configuration not stated) | > 100 µM | –
42 | CCCC(c1cc(C(C)(C)C)c(O)cc1C)c1cc(C(C)(C)C)c(O)cc1C | 14.5 µM | –
43 | CCOC(=O)Cc1csc(Nc2nc(O)c(C3=c4ccccc4=NC3=O)s2)n1 | 55.5 µM | 20.2 µM
44 | CO[C@@H]1[C@H](N(C)C(=O)c2ccccc2)C[C@@H]2O[C@]1(C)n1c3ccccc3c3c4c(c5c6ccccc6n2c5c31)C(=O)NC4=O | > 100 µM | 10.5 µM
45 | COc1ccc(/C=C2\N=C(N3CCOCC3)NC2=O)cc1 | > 100 µM | –
46 | O=C(OC1C#CCSCC#C/C=C\1)c1cnc2ccccc2n1 (configuration not stated) | > 100 µM | –
47 | CC(=O)OC1C(COC(N)=O)OC(n2c(-c3ccc(C)cc3)cc(-c3ccccc3)c(C#N)c2=O)C(OC(C)=O)C1OC(C)=O (configuration not stated) | > 100 µM | –
48 | COc1ncnn2ccc(-c3cnc4nc(C)n(Cc5nnc(C(C)F)o5)c4c3)c12 (configuration not stated) | > 93.1 µM | 0.408 µM
49 | O=C1NC(=N[C@@H]2C[C@H]2c2ccccc2)S/C1=C\c1ccc2ncccc2c1 | > 14.9 µM | 0.939 µM
50 | CNC(=S)N/N=C(\C)c1cc(OC)c(OC)cc1O | > 100 µM | –

Row | SMILES | TGI | GI50
51 | COc1cccc(Nc2ncnn3ccc(CN4CC[C@@H](N)[C@H](O)C4)c23)c1 | 8.48 µM and 5.48 µM | 0.0277 µM and 0.0361 µM
52 | Cc1cn2c(/C=N/NC3=NCCN3)c(-c3ccc(Cl)c([N+](=O)[O-])c3)nc2s1 | 1.83 µM | 0.83 µM
53 | C=CC(Br)(CBr)CCC1OC1(C)C (configuration not stated) | 94.3 µM | –
54 | COc1ccc(-c2nc(Nc3ccc(F)cc3)nc(Nc3ccc4c(c3)nc(C)n4Cc3ccccc3)n2)cc1 | > 100 µM | > 100 µM
55 | O=C1CNC(=O)N1 | > 1120 µM | –
56 | O=C(c1ccccc1)c1ccc(N2C(=O)/C(=C/c3cccc([N+](=O)[O-])c3)N=C2c2ccccc2)c(N2C(=O)/C(=C/c3cccc([N+](=O)[O-])c3)N=C2c2ccccc2)c1 | > 100 µM | –
57 | Cc1ccc(NC(=O)C23CC4CC(CC(C4)C2)C3)c(C(=O)NNC(=O)c2ccc(Cl)cc2)c1 | 77 µM | –
58 | COc1cc(/C=C2\N=C(c3ccccc3)N(c3ccc4c(c3)Sc3cc(N5C(=O)/C(=C/c6cc(OC)c(OC)c(OC)c6)N=C5c5ccccc5)ccc3N4)C2=O)cc(OC)c1OC | 37.6 µM | –
59 | Clc1ccc(Nc2ncnc3ccccc23)cc1 | > 100 µM | 7.47 µM
60 | COC1OC(CO)C(O)C(NC(=O)N(C)N=O)C1O (configuration not stated) | > 100 µM | –
61 | O=C1/C(=C\c2ccc(Cl)cc2)CN(C(=O)c2ccccc2)C/C1=C\c1ccc(Cl)cc1 | > 100 µM | 25.9 µM
62 | COc1ccc(C(=O)/C=C/c2ccc(OCC(=O)N3CCN(c4ccccc4)CC3)cc2)cc1OC | > 10 µM | –
63 | CC1OC(n2ccc3ccc([N+](=O)[O-])cc32)C(O)C(O)C1O (configuration not stated) | > 100 µM | –
64 | O=C(Cc1c(C(=O)Nc2ccccc2)sc(C(=O)Nc2ccccc2)c1CC(=O)Nc1ccccc1)Nc1ccccc1 | 9.83 µM | –
65 | O=C(NCCCNc1cc(-c2cn(-c3ccccc3)nc2-c2cccc(O)c2)ccn1)c1ccc(F)cc1 | 18.7 µM | 3.27 µM
66 | c1ccc(C2C3=C(c4ccccc4CC3)N3c4cc5nc6ccccc6nc5cc4NC34CCCCC24)cc1 (configuration not stated) | > 10 µM | –
67 | CC1(C)CCCCC1/C=C/C(CC(O)(C(F)(F)F)C(F)(F)F)=N\Nc1ccc([N+](=O)[O-])cc1[N+](=O)[O-] (configuration not stated) | 0.735 µM | –
68 | CC1(C)CCCC2(C)[C@@H]1CC[C@]13C[C@](C)(CC[C@@H]21)[C@@H]3CO (some centres not stated) | > 100 µM | –
69 | NNC(=S)N/N=C/c1ccccn1 | > 100 µM | 3.17 µM
70 | CN(CCNc1ccc(C(=N)N)cc1)c1ccc(C(=N)N)cc1 | > 100 µM | > 100 µM
71 | CCOC(=O)C(=O)N=Nc1c(O)[nH]c2ccccc12 | > 100 µM | –
72 | Cc1ccc(C)n1-n1c(Cc2ccc(Cl)cc2)n[nH]c1=O | > 100 µM | –
73 | Nc1n[nH]c2ccc([C@H]3[C@@H]4C5CCC(C5)[C@@H]4c4c(ccc5[nH]ncc45)N3S(=O)(=O)C3CC3)cc12 (some centres not stated) | > 50 µM | 0.333 µM
74 | COc1ccc(/C=C2\C(=O)Nc3ccccc32)cc1OC | > 100 µM | –
75 | Cc1cc(C)c2c(=O)cc(-c3ccccc3)[nH]c2c1 | 28.2 µM | –

Row | SMILES | TGI | GI50
76 | CCN(CC)CCOc1ccc(N2Cc3cc(OC)c(OC)cc3C2=O)cc1 | > 100 µM | –
77 | CC1(C)OC[C@@H]([C@H](C=O)OCc2ccccc2)O1 | > 100 µM | –
78 | COc1cc(C2SC(N)=Nc3c2c(C)nn3C(=O)Cc2ccccc2)cc(OC)c1OC (configuration not stated) | > 100 µM | –
79 | COc1cc2c3c(n(CCCNC(C)(C)CO)c(=O)c2cc1OC)-c1cc2c(cc1C3=O)OCO2 | 53.8 µM | 7.14 µM
80 | COc1ccc2cc(NC(=O)Nn3cnnc3)ccc2c1 | > 100 µM | –
81 | Cc1cc2c(=O)cc(-c3ccc(C(=O)O)cc3)oc2c(C(N)=O)c1C | > 100 µM | –
82 | Cc1cc(N(C)C)ccc1N=Nc1ccc2ncccc2c1 | > 100 µM | –
83 | N#Cc1nc(N)c(C#N)[nH]1 | > 100 µM | –
84 | Cc1ccc([N+](=O)[O-])cc1S(=O)(=O)Nc1ccc(C(=O)/C=C/c2ccccc2)cc1 | 42.9 µM | –
85 | O=C(CC(O)(C(F)(F)Cl)C(F)(F)Cl)CC(O)(C(F)(F)Cl)C(F)(F)Cl | > 10 µM | –
86 | CCCCCCCCOP(=O)(O)OP(=O)(O)OCC1OC(n2ccc(N)nc2=O)C(O)C1O (configuration not stated) | > 100 µM | –
87 | Cc1ccc2[nH]c3c(C)c4cc[n+](C)cc4c(C)c3c2c1 | 10.4 µM | –
88 | Brc1ccc2[nH]cc([C@@H]3CN[C@@H](c4c[nH]c5ccc(Br)cc45)CN3)c2c1 | 17.3 µM | –
89 | COc1ccc2c(c1)C(=O)/C(=C/c1ccccc1)C2 | > 100 µM | –
90 | Cc1ccc(C)c(N2C(=O)C(=O)C(c3nc4ccccc4s3)C(=O)C2=O)c1 | > 100 µM | –
91 | CC1(C)OP(=O)(c2ccccc2)C=C1Br (configuration not stated) | > 100 µM | –
92 | Nc1c2ccccc2nc2nccnc12 | > 100 µM | –
93 | CC1NC(=O)c2c(-c3ccccc3)nn(-c3ccccc3)c2NC1=O (configuration not stated) | > 100 µM | –
94 | CCOC(=O)c1c2c(n(Cc3ccccc3)c1C)-c1nc[nH]c1C(=O)C2=O | 27.6 µM | 14.3 µM
95 | Cc1cc2c(cc1C)[n+](=O)c(C(=O)CC(=O)C(=O)Nc1ccccc1C)c(C)n2[O-] | > 100 µM | –
96 | Cc1ccc(NC(=O)CC2SC(=Nc3cccc(Cl)c3C)NC2=O)cc1 (configuration not stated) | > 100 µM | –
97 | CC1(C)CC(=O)c2c(nc3c(ccc4ccccc43)c2-c2ccc(NC(=O)CCCCCCCCC(=O)Nc3ccc(-c4c5c(nc6c4ccc4ccccc46)CC(C)(C)CC5=O)cc3)cc2)C1 | > 100 µM | –
98 | O=C(O)c1ccc(NCn2nc(-c3ccccc3O)oc2=S)cc1O | > 100 µM | > 100 µM
99 | CC(C)C1=CC23CCC4C(C)(C(=O)O)CCCC4(C)C2CC1C1C(=O)N(c2ccc(N4C(=O)C5C6CC7C8(C)CCCC(C)(C(=O)O)C8CCC7(C=C6C(C)C)C5C4=O)cc2)C(=O)C13 (configuration not stated) | 16.9 µM | –
